From article PMC4336329 (PLoS ONE, 2015) come the findings set out here.

Structures are written as SMILES. Among all 310,000 compounds or so, about 2,200 (0.71%) showed an effect of 50% or more. Effects have a minus sign here. Some of the results follow.

Chain of human ether-à-go-go-related gene (hERG) potassium channel (Q12809 whole entry, looked up): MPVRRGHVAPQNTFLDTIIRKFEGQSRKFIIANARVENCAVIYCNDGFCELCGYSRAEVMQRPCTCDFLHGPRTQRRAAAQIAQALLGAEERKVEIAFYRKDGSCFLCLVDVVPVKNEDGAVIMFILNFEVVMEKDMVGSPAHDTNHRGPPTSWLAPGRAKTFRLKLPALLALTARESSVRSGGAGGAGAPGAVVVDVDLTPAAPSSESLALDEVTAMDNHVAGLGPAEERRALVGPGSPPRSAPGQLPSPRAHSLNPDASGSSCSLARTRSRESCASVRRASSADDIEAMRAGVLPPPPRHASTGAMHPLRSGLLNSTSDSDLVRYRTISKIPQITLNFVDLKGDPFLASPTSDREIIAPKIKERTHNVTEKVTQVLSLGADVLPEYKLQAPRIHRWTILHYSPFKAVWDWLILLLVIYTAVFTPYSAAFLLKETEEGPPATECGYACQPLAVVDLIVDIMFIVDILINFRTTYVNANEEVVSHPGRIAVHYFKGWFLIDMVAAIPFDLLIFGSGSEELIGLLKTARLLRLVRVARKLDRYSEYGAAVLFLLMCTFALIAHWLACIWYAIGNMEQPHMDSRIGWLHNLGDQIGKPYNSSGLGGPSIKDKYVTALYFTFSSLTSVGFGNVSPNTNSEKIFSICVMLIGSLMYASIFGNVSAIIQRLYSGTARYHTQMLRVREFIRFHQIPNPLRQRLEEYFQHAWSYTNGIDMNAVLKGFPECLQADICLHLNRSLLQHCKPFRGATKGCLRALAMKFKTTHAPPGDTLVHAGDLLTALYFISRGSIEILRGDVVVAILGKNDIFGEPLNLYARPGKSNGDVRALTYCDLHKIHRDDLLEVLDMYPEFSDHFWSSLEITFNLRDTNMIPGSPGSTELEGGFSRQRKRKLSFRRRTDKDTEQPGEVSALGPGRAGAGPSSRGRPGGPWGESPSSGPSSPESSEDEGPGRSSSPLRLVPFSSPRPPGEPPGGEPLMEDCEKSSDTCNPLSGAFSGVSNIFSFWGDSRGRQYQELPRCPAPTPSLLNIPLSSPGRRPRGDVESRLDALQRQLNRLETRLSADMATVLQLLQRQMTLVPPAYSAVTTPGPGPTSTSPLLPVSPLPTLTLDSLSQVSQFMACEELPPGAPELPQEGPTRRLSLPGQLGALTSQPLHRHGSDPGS

The assay has as its target human ether-à-go-go-related gene (hERG) potassium channel (human, UniProt Q12809). Description: primary screen, population patch clamp on CHO cells stably expressing hERG.
Consider `Cc1ccc(CSCCNC(=O)c2ccccc2)cc1`, for which the “hERG current change (%, negative = inhibition) at 1uM” value is 6.03%. The value for `O=C(Nc1ccc2c(c1)OCO2)NC1(C(F)(F)F)Oc2ccccc2O1` was 0.995%. Take `CCCCn1c2ccccc2c2nnc(SCC(=O)NC3=NN=C(c4ccccc4)CS3)nc21`: the “hERG current change (%, negative = inhibition) at 1uM” value stood at 11%. With `Cc1cc(OCC(=O)N(C)c2ccccc2)cc2c1C(=O)CC(C)(C)O2`, the “hERG current change (%, negative = inhibition) at 1uM” value stood at 13.6%. As to `Cc1ccsc1/C=N/n1c(-c2ccccc2)n[nH]c1=S`, the “hERG current change (%, negative = inhibition) at 1uM” value is 7%. Under `S=c1[nH]nc(-c2ccc(Cl)cc2)n1-c1ccc2c(c1)OCCO2` stands 7.4%; under `CCOC(=O)Cc1csc(NC(=O)Cc2ccc(Br)cc2)n1`, 6.73%. On to `O=C(CN(C(=O)CCC(=O)Nc1nccs1)c1ccc(F)cc1)NCc1ccco1`, for which the “hERG current change (%, negative = inhibition) at 1uM” value came to 11.7%.

As for `CCOc1ccccc1Nc1ccc(C(=O)O)cc1[N+](=O)[O-]`, the “hERG current change (%, negative = inhibition) at 1uM” value is 6.51%. The value for `O=C(NC1CCN(S(=O)(=O)c2cccc(F)c2)CC1)c1ccc(F)cc1` was 12.3%; that for `O=C(Cn1cncn1)NCCCc1ccccc1` was 8.5%. The value for `Cc1cnc(=O)[nH]c1SCc1ccc(C(F)(F)F)cc1` was 23%; that for `O=C(/C=C/c1ccc(Br)cc1)NC(=O)c1ccccc1O` was 15.9%. For the compound `C=CCOc1nc2c(c(=O)n(C)c(=O)n2C)n1Cc1ccc(Cl)cc1`, the “hERG current change (%, negative = inhibition) at 1uM” value came to 6.43%.

As to `CCCCOC(=O)c1ccc(NC(=O)CSc2nnnn2C)cc1`, the “hERG current change (%, negative = inhibition) at 1uM” value was found to be 15.4%. Under `COc1ccccc1/C=C1\SC(=S)N(CC(=O)NC2CCS(=O)(=O)C2)C1=O` (centres unmarked) stands -8.65%. Under `CC(=O)Nc1ccc(NC(=O)C23CC4CC(C2)CC(n2cnc(Br)n2)(C4)C3)cc1` stands -33.1%; under `COC(=O)c1cc(C(=O)OCC(=O)NC2CCS(=O)(=O)C2)cc([N+](=O)[O-])c1` (centres unmarked), 1.14%; under `Cc1cc(NC(=O)CSc2nc(C(C)C)nc3c2c(=O)n(C)c(=O)n3C)no1`, 13.5%. The value for `O=C(Nc1cnc2ccccc2c1)N1CCCCC1` was 8.03%; that for `COc1cccc(/C=C/c2ccc3ccccc3n2)c1OC(C)=O` was 17.8%; that for `CCOC(=O)N1CCC(NC(=O)C2CCCN(Cc3nc(-c4ccc(CC)cc4)oc3C)C2)CC1` (centres unmarked) was -39.3%. As to `CN(C)S(=O)(=O)c1cccc(C(=O)NCC(=O)NC2CCN(Cc3ccccc3)CC2)c1`, the “hERG current change (%, negative = inhibition) at 1uM” value was found to be 9.62%. Under `Cc1ccc2c(c1)[nH]c1c(=O)n(CCCN3CCOCC3)cnc12` stands -5.55%; under `CCCCCC(=O)NC(=S)NNC(=O)CC`, 10.6%; under `CCCN1CCN(C(=O)c2c(Cl)cnn2C)CC1`, 3.15%.

For `O=C(O)c1ccc(NC(=O)c2ccc(COc3ccccc3)o2)cc1`, the “hERG current change (%, negative = inhibition) at 1uM” value is 7.72%. As to `COc1cc(/C=C2/SC(=S)N(C)C2=O)ccc1OC(=O)c1ccco1`, the “hERG current change (%, negative = inhibition) at 1uM” value is on record as 4.16%. The value for `CCCCC1=CC2=CC(=O)C(C)(OC(=O)CC)C(=O)C2=CN1Cc1ccc(OC)cc1` (centres unmarked) was -4.02%. With `CC1(C)SC(=Nc2ccccc2)N(S(=O)(=O)c2ccccc2)C1=O`, the “hERG current change (%, negative = inhibition) at 1uM” value is 2.54%.

In the case of `CNC(=O)c1[nH]cnc1C(=O)N[C@@H](C)C(=O)OCc1ccccc1`, the “hERG current change (%, negative = inhibition) at 1uM” value was found to be 7.72%. The value for `COc1cc2c(cc1OC)C(c1ccc(N(C)C)cc1)NCC2.Cl` (centres unmarked) was 10.3%.

Consider `Cc1ccc(S(=O)(=O)Nc2ccc3c(c2)OCCO3)c(C)c1NS(C)(=O)=O`, for which the “hERG current change (%, negative = inhibition) at 1uM” value came to 12.1%. Under `COc1ccc(NS(=O)(=O)c2cccc(C(=O)NC3CCC(O)CC3)c2)cc1` (centres unmarked) stands 6.55%. With `Cc1cc(NC(=O)CN2CCN(c3ccccc3O)CC2)no1`, the “hERG current change (%, negative = inhibition) at 1uM” value was -9.32%.

As for `COc1cccc(C(=O)N/N=C(/CCC(=O)O)c2ccccc2)c1`, the “hERG current change (%, negative = inhibition) at 1uM” value was determined as 6.54%. Turning to `Cc1ccc(C)n1CCN1CCN(C(=O)CSc2nc3ccccc3nc2N2CCOCC2)CC1`, the “hERG current change (%, negative = inhibition) at 1uM” value is recorded as -11.1%.

For `Cc1ccc(NC(=S)N(CCN(C)C)C(C)c2ccco2)c(C)c1` (centres unmarked), the “hERG current change (%, negative = inhibition) at 1uM” value is on record as -1.27%.

In the case of `Cc1ccc(NC(=O)CN2C(=O)S/C(=C/c3ccc(-c4cc(C(=O)O)ccc4C)o3)C2=O)cc1C`, the “hERG current change (%, negative = inhibition) at 1uM” value is given as 7.92%. On to `O=C(NN1C(=O)C2C3c4ccccc4C(c4ccccc43)[C@@H]2C1=O)c1ccccc1` (some centres unmarked), for which the “hERG current change (%, negative = inhibition) at 1uM” value is reported as 10.8%. In the case of `COc1cc(NC(=O)Cn2cnc(S(=O)(=O)N3CCc4ccccc43)c2)cc(OC)c1OC`, the “hERG current change (%, negative = inhibition) at 1uM” value was determined as 10%. For `CN(C)/C=N/c1ncc(C(=O)c2ccccc2)s1`, the “hERG current change (%, negative = inhibition) at 1uM” value came to 13.5%. The value for `Cc1cccc(C(=O)N(Cc2ccc(C)o2)C2CCS(=O)(=O)C2)c1` (centres unmarked) was -17.2%. Turning to `O=C(CSCc1ccc([N+](=O)[O-])cc1)N/N=C/c1ccncc1`, the “hERG current change (%, negative = inhibition) at 1uM” value is recorded as -19.5%. Take `O=C(/C=C1\NCC2c3ccccc3CCN2C1=O)c1ccccc1` (centres unmarked): the “hERG current change (%, negative = inhibition) at 1uM” value worked out at 5.83%. Under `N#Cc1ccc(C(=O)OCC(=O)Nc2cccc(S(=O)(=O)N3CCCCC3)c2)cc1` stands -4.16%; under `Cc1ccc(CN=C(N)Nc2nc(C)cc(C)n2)cc1.Cl`, -19.5%. Under `Cc1cc(C)c(NC(=O)CN(C)C(=O)CNC(=O)c2cccs2)c(C)c1` stands 9.26%; under `Cc1ccc2oc(-c3ccc(NC(=O)c4cccnc4)cc3)nc2c1`, 6.73%. Under `CCOC(=O)C1=C(C)N=C2SC(C)C(=O)N2C1c1ccc(OC(C)=O)c(OC)c1` (centres unmarked) stands 11.8%; under `Cc1cc(C(=O)C(C)OC(=O)c2ccc(NC(=O)CC#N)cc2)c(C)n1-c1ccccc1` (centres unmarked), 14.7%; under `Cc1ccc(OCC(=O)N2CCC(N3CCCCCC3)CC2)cc1`, -5.71%. For `Cc1c([N+](=O)[O-])cc(C(=O)Oc2cccc(C(=S)N3CCOCC3)c2)cc1[N+](=O)[O-]`, the “hERG current change (%, negative = inhibition) at 1uM” value was found to be 2.85%. On to `CCN(CC)CCn1c(NCc2ccc(OC)cc2)nc2ccccc21`, for which the “hERG current change (%, negative = inhibition) at 1uM” value is -25.4%.

With `COc1ccc(NC(=O)Cn2c(C(C)C)nc(C)cc2=O)cc1Cl`, the “hERG current change (%, negative = inhibition) at 1uM” value was found to be 9.99%. Consider `CCOc1nc(N2CCOCC2)nc(C)c1[N+](=O)[O-]`, for which the “hERG current change (%, negative = inhibition) at 1uM” value is given as -0.713%.

Regarding `CCOC(=O)N1CCN(C(=O)c2ccc3ccccc3c2)CC1`, the “hERG current change (%, negative = inhibition) at 1uM” value worked out at 16.1%. Consider `Cc1cnc(NS(=O)(=O)c2ccccc2)c(Br)c1`, for which the “hERG current change (%, negative = inhibition) at 1uM” value is recorded as 9.81%. Turning to `C=CCN(CC=C)C(=S)NC(=O)/C=C/c1ccc(C)cc1`, the “hERG current change (%, negative = inhibition) at 1uM” value worked out at 10.5%. As for `COc1cc(C(NC(C)=O)NC(C)=O)ccc1OCc1ccccc1`, the “hERG current change (%, negative = inhibition) at 1uM” value worked out at 7.89%. As for `CC1CCC(NC(=O)CCC(=O)N2CC(C)Oc3ccccc32)CC1` (centres unmarked), the “hERG current change (%, negative = inhibition) at 1uM” value is listed as 6.58%.

Consider `O=C1CC(c2ccccc2)CC(=O)C1CS(=O)(=O)c1ccccc1` (centres unmarked), for which the “hERG current change (%, negative = inhibition) at 1uM” value is on record as 18.9%. The value for `O=c1c(Cc2c(F)cccc2Cl)c(O)ccn1C1CCCCCC1` was 11%. Under `O=C(O)c1cnccn1` stands 10.6%; under `CCOC(=O)C1=C(N)N2C(=O)C(C)SC2=C(C(=O)OC)C1c1ccccc1OC` (centres unmarked), 13.6%. The value for `COc1ccc(-c2c(C)nn3c(Cl)c(C)c(C)nc23)cc1` was 15.8%. As to `CC(NC(=O)CSc1nnc(-c2cccnc2)n1N)c1ccccc1` (centres unmarked), the “hERG current change (%, negative = inhibition) at 1uM” value worked out at 4.59%.

Turning to `CC(=O)c1ccc(S(=O)(=O)Nc2ccc(C(=O)NCCCn3ccnc3)cc2)cc1`, the “hERG current change (%, negative = inhibition) at 1uM” value is listed as 0.706%. In the case of `CCOC(=O)CC(=O)CSc1ccc2nnc(-c3cccc(F)c3)n2n1`, the “hERG current change (%, negative = inhibition) at 1uM” value was -35%. Turning to `CN(C)CCN(C(=O)c1cc(Cl)sc1Cl)c1nc2ccc(F)cc2s1.Cl`, the “hERG current change (%, negative = inhibition) at 1uM” value was -16.6%. Turning to `Cc1ccc(-n2c(N)c(Br)c(=O)[nH]c2=O)cc1C`, the “hERG current change (%, negative = inhibition) at 1uM” value came out at 7.07%. The value for `Cc1cccc(Sc2ccc([N+](=O)[O-])cn2)c1` was 6.43%; that for `COc1ccc(NC(=O)C(NC(C)=O)C(=O)Nc2ccc(F)cc2)cc1` (centres unmarked) was 14.3%; that for `COc1cccc(NC(=O)CSc2ccc3nnc(-c4cccnc4)n3n2)c1` was 1.14%. Under `O=C(Nc1cccc(F)c1)Nc1cnccn1` stands 14.5%; under `O=C(CCc1ccccc1)NCC(=O)N/N=C/c1ccc2c(c1)OCO2`, 0.246%; under `Cc1ccc(S(=O)(=O)N2CCCCC2CCNC(=O)C(=O)NCC2CCCO2)cc1` (centres unmarked), 6.93%. `CCc1ccccc1Nc1nc(N)nc(CSCC(=O)c2cc(C)n(C)c2C)n1`: the “hERG current change (%, negative = inhibition) at 1uM” value came to 5.97%. Under `Cc1cc(N2CC(C(=O)NCc3cccnc3)CC2=O)ccc1C(C)C` (centres unmarked) stands 1.95%.

For `CCCCSc1nc2c(c(C(F)(F)F)c1C#N)CCC2`, the “hERG current change (%, negative = inhibition) at 1uM” value is 17.2%. For the compound `O=C(COc1ccc(Cl)cc1Br)Nc1ccccc1N1CCCC1`, the “hERG current change (%, negative = inhibition) at 1uM” value came to 11.5%. Under `CCOC(=O)C1(Cc2ccc(Cl)cc2)CCN(C(=O)c2cc(C)nc(C)n2)CC1` stands -0.647%; under `COc1ccc(-c2c(C(=O)O)c(C(=O)O)c3n2CCC3)cc1`, 18.4%. In the case of `COc1ccc(-c2[nH]ncc2CN(CC2CCC(=O)N2)C(C)C)cc1F` (centres unmarked), the “hERG current change (%, negative = inhibition) at 1uM” value is 7.07%. Take `CCNC(=O)C(=O)c1c(-c2ccccc2)[nH]c2ccccc12`: the “hERG current change (%, negative = inhibition) at 1uM” value was determined as 8.09%. Consider `CC(=O)c1cccc(N(CC(=O)NC2CCCC2)C(=O)CNC(=O)c2cccs2)c1`, for which the “hERG current change (%, negative = inhibition) at 1uM” value amounted to 12.3%. The value for `CCC1C(=O)N=C(SCC(=O)Nc2nc3ccccc3s2)NC1=O` (centres unmarked) was 12.6%. In the case of `Cc1cccc(-c2noc(Cc3ccc(Cl)cc3)n2)c1`, the “hERG current change (%, negative = inhibition) at 1uM” value came out at 13.1%.

Turning to `COc1ccc(NC(=O)c2cccnc2SC)cc1OC`, the “hERG current change (%, negative = inhibition) at 1uM” value was found to be 7.51%.
